PubChem BioAssay AID485294 (National Center for Advancing Translational Sciences (NCATS), 2010)
In all, about 370,000 compounds went through this assay and about 150 (0.041%) were called active. The shares of active, inactive and inconclusive entries below differ from those in the screen. Calls come from the whole dose curve; as a rule, active = well fitted inhibition curve with a large enough effect; inconclusive = small, poorly fitted or top-dose-only effect; inactive = flat fitted curve, though single readings scatter. Potencies of inconclusive entries are left out as doubtful fits.

molecular target: Beta-lactamase (Escherichia coli (strain K12)) (UniProt P00811); experiment: qHTS Inhibitors of AmpC Beta-Lactamase (assay with detergent); conditions: AmpC hydrolysis of nitrocefin, absorbance 480 nm, 0.01% Triton; activity change, negative = inhibition: at 114 µM (top of the series); note: nearly all actives have a fitted effect of over 25% in size;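 for activity change, negative = inhibition: 0% = no-compound wells and -100% = no-enzyme wells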
Method in brief: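 20 mM phosphate pH 7.0 + 0.01% (detergent screen) or 0.0001% Triton X-100; 5.3 nM AmpC reagent; cpd preinc 15 min RT; nitrocefin (800 uM stock) to start; A480 q20 s × 4 min; Activity was normalised to no-enzyme and no-compound control wells.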
Potency is the fitted concentration of half-maximal effect; tags give direction and shape of the fitted curve.

UniProt P00811, sequence (P00811 whole entry, looked up): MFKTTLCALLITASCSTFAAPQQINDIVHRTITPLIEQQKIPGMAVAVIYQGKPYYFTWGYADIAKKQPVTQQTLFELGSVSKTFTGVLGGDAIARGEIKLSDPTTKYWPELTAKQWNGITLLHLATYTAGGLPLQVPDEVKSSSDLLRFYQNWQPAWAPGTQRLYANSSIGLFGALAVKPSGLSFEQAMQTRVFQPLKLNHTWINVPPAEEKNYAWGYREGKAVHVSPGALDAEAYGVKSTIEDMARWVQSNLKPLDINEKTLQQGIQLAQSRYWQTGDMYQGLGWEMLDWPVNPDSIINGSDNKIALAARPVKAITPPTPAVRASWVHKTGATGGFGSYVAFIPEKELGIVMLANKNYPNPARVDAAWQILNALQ

Compound | activity change, negative = inhibition | Potency
CC(C)Oc1cccc(C(=O)C2CCCN(Cc3ccc4nonc4c3)C2)c1 (stereo not given) | inactive: 8.74% | 
Cc1nn(Cc2ccc(C(=O)NN)cc2)c(C)c1Cl |  | inconclusive [inhibitor, single point]
CCC(C)[C@H](NC(=O)N1CC(=O)Nc2ccccc21)C(=O)Nc1ccccc1C (stereo not given in full) |  | inconclusive [inhibitor, full curve, poor fit]
CSc1cccc(NC(=S)N2CCCN(Cc3cccc(Cl)c3)C2)c1 | inactive: -0.384% | 
COC(=O)c1ccc(C2C(C(C)=O)=C(C)Nc3ncnn32)cc1 (stereo not given) |  | inconclusive [inhibitor, full curve, poor fit]
O=C(CSc1nc(=O)[nH]c2c1CCCC2)NCc1ccccc1 | inactive: 2.79% | 
COc1cc(Cl)ccc1OCc1cc(C(=O)N(C)CC2CCCCO2)no1 (stereo not given) | inactive: -11.4% | 
COCCCNC(=O)C(=O)Nc1cc2c3c(c1)CCC(=O)N3CCC2 |  | inconclusive [inhibitor, full curve, poor fit]
C[n+]1cccc(C(=O)[O-])c1 |  | inconclusive [inhibitor, full curve, poor fit]
O=C(NC1CCCCC1)C(=O)N(Cc1cccnc1)C(C(=O)NCc1ccco1)c1ccccc1 (stereo not given) | inactive: 4.73% | 
COc1ccc(CN2CCNC(=O)C2CC(=O)N(C)Cc2nc(C)cs2)c(OC)c1 (stereo not given) | inactive: 10.7% | 
Cc1sc2ncnc(N/N=C/c3ccccc3O)c2c1C |  | inconclusive [inhibitor, full curve, poor fit]
COc1cc(C(=O)NCCCc2ccccc2)cc(OC)c1OC |  | inconclusive [inhibitor, partial curve]
C=CCN(CC=C)CC(=O)Nc1ccc(S(N)(=O)=O)cc1 |  | inconclusive [inhibitor, partial curve, poor fit]
Cc1occc1C(=O)NCc1ccc2c(c1)OCO2 | inactive: -5.54% | 
Cc1ccc(NC(=O)C2CCN(C(=O)c3cccs3)CC2)c(C)c1 |  | inconclusive [inhibitor, full curve, poor fit]
O=S(=O)(c1cc(Cl)ccc1Cl)N1CCN(Cc2ccc3c(c2)OCO3)CC1 |  | inconclusive [inhibitor, single point]
CCOc1ccc(-c2nc(N)ncc2Oc2cccc(OC)c2)c(O)c1 |  | inconclusive [inhibitor, full curve, poor fit]
Cc1ccc(C)c(S(=O)(=O)N2CCN(C(=O)CSC(=S)N3CCCC3)CC2)c1 |  | inconclusive [inhibitor, full curve, poor fit]
COc1cc(CNC2CCCCC2OC)cc(OC)c1 (stereo not given) |  | inconclusive [inhibitor, partial curve]
Cc1cc(C)cc(OCc2nnc(SCC(=O)c3ccc(Br)cc3)o2)c1 |  | inconclusive [inhibitor, full curve, poor fit]
OCC1(CO)COC2(CCCC2)N1 |  | inconclusive [inhibitor, full curve]
O=C(CCCn1c(=S)[nH]c2ccsc2c1=O)NCc1ccco1 | inactive: -14.2% | 
Cc1csc(NC(=O)Cc2ccc(F)cc2)n1 |  | inconclusive [inhibitor, partial curve, poor fit]

Compound | activity change, negative = inhibition | Potency
O=C(NCc1cccs1)C(=O)NCC(c1ccco1)N1CCN(c2ccccc2F)CC1 (stereo not given) |  | inconclusive [inhibitor, partial curve, poor fit]
COc1ccc(C(=O)Nc2cccc(/C=C(\CCC(=O)O)c3nc4ccccc4s3)c2)cc1 | inactive: -6.97% | 
Cc1c(NC(=O)c2ccc3c(c2)OCO3)cccc1-c1nc2ncccc2o1 |  | inconclusive [inhibitor, full curve]
c1ccc(Cn2nnnc2CN2CCN(Cc3ccc4c(c3)OCO4)CC2)cc1 |  | inconclusive [inhibitor, partial curve]
CC1(c2nnc(Cc3ccccc3)o2)CC(c2cccc([N+](=O)[O-])c2)=NO1 (stereo not given) | inactive: -9.52% | 
CCCOc1ccc(/C=N/Nc2cccc([N+](=O)[O-])c2)c(O)c1 |  | inconclusive [inhibitor, partial curve, poor fit]
CCc1noc(C)c1C(=O)N1CCN(S(=O)(=O)c2ccc(C(C)=O)cc2)CC1 |  | inconclusive [inhibitor, partial curve, poor fit]
CCCCSCCCNC(=O)CCCN1C(=O)c2ccccc2Sc2ncccc21 | inactive: -7.27% | 
COc1ccc(C)cc1NC(=O)C(Sc1nnc2ccccn12)c1ccccc1 (stereo not given) |  | inconclusive [inhibitor, partial curve]
O=c1oc2c(CN3CCOCC3)c(O)c(Cl)cc2c2c1CCC2 |  | inconclusive [inhibitor, full curve, poor fit]
CN(C)c1ccc(NC(=O)N2CCOCC2)cc1 | inactive: 6.43% | 
Cc1cc(C(=O)Nc2ccc(C(=O)O)cc2)c(-c2ccccc2)o1 |  | inconclusive [inhibitor, full curve, poor fit]
COC(=O)CNc1c(-c2ccccn2)nc2ccc(Br)cn12 |  | inconclusive [inhibitor, partial curve]
O=C(NC1CCCCC1)c1ccc([N+](=O)[O-])o1 | inactive: -5.96% | 
O=Cc1cnc(N2CCCCC2)s1 | inactive: 2.25% | 
CC(C)c1ccc(NC(=O)COC(=O)[C@H](CCC(N)=O)NC(=O)c2ccc(F)cc2)cc1 |  | inconclusive [inhibitor, partial curve, poor fit]
Cc1cc(C(=O)CCC(=O)N(C)CC(=O)Nc2ccccc2Br)c(C)s1 |  | inconclusive [inhibitor, full curve, poor fit]
CCOc1ccc(CN2CCNC(=O)C2CC(=O)OC)cc1 (stereo not given) |  | inconclusive [inhibitor, full curve, poor fit]
O=C(CC1CC2CCC1C2)Nc1nc(-c2ccccn2)cs1 (stereo not given) | inactive: -10.3% | 
O=C(O)c1ccc(Cl)c(S(=O)(=O)NCc2ccco2)c1 |  | inconclusive [inhibitor, full curve, poor fit]
COc1ccc(NC(=O)CSc2nc(-c3cccc(C)c3)[nH]c2-c2ccccc2)cc1OC | inactive: 6.95% | 
O=C(COc1ccc(/C=N/NC(=O)c2ccncc2)cc1)Nc1cccc([N+](=O)[O-])c1 | inactive: -8.81% | 
COc1ccc(N2CCN(C(=O)CCN3C(=S)NC(C)(C)CC3C)CC2)cc1 (stereo not given) | inactive: 3.49% | 
CCOC(=O)C1=C(N)OC2=C(C(=O)CCC2)C1c1ccc(C)s1 (stereo not given) |  | inconclusive [inhibitor, full curve, poor fit]

Compound | activity change, negative = inhibition | Potency
O=C(Nc1ccc(F)cc1)C1CCCN(S(=O)(=O)c2ccc3[nH]c(=O)ccc3c2)C1 (stereo not given) |  | inconclusive [inhibitor, partial curve, poor fit]
COc1cc(Cl)c(S(=O)(=O)N2CCN(Cc3ccc4c(c3)OCO4)CC2)cc1Cl |  | inconclusive [inhibitor, partial curve, poor fit]
O=C1C(=O)N(O)C2CCCCC2N1O (stereo not given) |  | inconclusive [inhibitor, full curve, poor fit]
COCCn1c(C)cc(C(=O)CSc2nc3ccccc3c(=O)[nH]2)c1C | inactive: -6.83% | 
COCCCn1c(C23CC4CC(CC(C4)C2)C3)n[nH]c1=S |  | inconclusive [inhibitor, full curve]
O=C1N[C@H](Cc2ccccc2)CO1 |  | inconclusive [inhibitor, full curve]
COc1ccc(N2CCN(C3CC(=O)NC3=O)CC2)cc1 (stereo not given) |  | inconclusive [inhibitor, full curve, poor fit]
CCOC(=O)c1cnn(CCOC(=O)c2ccccc2F)c1NC(=O)c1ccccc1F |  | inconclusive [inhibitor, partial curve, poor fit]
COc1ccc(Cc2nnc(SCC(=O)Nc3ccc(N4CCOCC4)cc3)o2)cc1 |  | inconclusive [inhibitor, single point]
COC(=O)COc1ccc(S(=O)(=O)Nc2ccccc2SC)cc1 |  | inconclusive [inhibitor, full curve, poor fit]
Cc1cccn2c(=O)c3cc(C#N)c(=O)n(-c4nnc(SCc5ccc(Cl)cc5)s4)c3nc12 | inactive: 0% | 
COc1ccc(S(=O)(=O)Nc2ccc(C)cn2)cc1 |  | inconclusive [inhibitor, partial curve, poor fit]
Cc1c(Cl)cccc1NC(=O)CCOc1ccccc1 | inactive: -10.1% | 
Cc1ccc(NC(=O)/C=C/c2ccc([N+](=O)[O-])s2)c(C)c1 | inactive: 2.75% | 
Clc1ccc(CN(CC2CCCO2)C(c2cccs2)c2nnnn2C2CCCC2)cc1 (stereo not given) |  | inconclusive [inhibitor, single point]
Cc1oc(-c2ccccc2Cl)nc1CSc1nc2c(c(=O)[nH]1)CCC2 | inactive: -16.1% | 
C[C@H](NC(=O)[C@@H]1Cc2ccccc2CN1)C(=O)Nc1ccc2c(c1)OCO2 | inactive: -2.83% | 
Cc1ccsc1/C=N/NC(=O)Nc1ccccc1 |  | inconclusive [inhibitor, full curve, poor fit]
COc1ccc(-c2cn(-c3ccc(C)cc3)c(=O)n2CC(=O)Nc2ccc(OC)c(OC)c2)cc1 |  | inconclusive [inhibitor, single point]
COc1ccc(NC(=O)C2CCCN2C(=O)NCc2ccccc2)c(OC)c1 (stereo not given) |  | inconclusive [inhibitor, full curve]
CCOC(=O)C1C(=O)Nc2nc3ccccc3n2C1C(C)C (stereo not given) |  | inconclusive [inhibitor, full curve]
Cc1cc(C(=O)O)c(CSc2ncn[nH]2)o1 |  | inconclusive [inhibitor, single point]
